Test results from patent US10532068B2, “Dual molecular delivery of oligonucleotides and peptide containing conjugates” (Merck Sharp & Dohme Corp., priority 2013, dated 2020).
At least one peptide structure holds a part that was inferred or is arguable (an end, a ring closure or a residue). Where a SMILES comes first, the peptide text is derived from it. [ ]: non-standard residue; d: D form. The star is where a group is joined. X1 = CC(=O)N[C@H]1[C@H](OCCOCCn2cc(CN(CCCC[C@@H](C(=O)NCCS*)N(Cc3cn(CCOCCO[C@@H]4O[C@H](CO)[C@H](O)[C@H](O)[C@H]4NC(C)=O)nn3)Cc3cn(CCOCCO[C@@H]4O[C@H](CO)[C@H](O)[C@H](O)[C@H]4NC(C)=O)nn3)Cc3cn(CCOCCO[C@@H]4O[C@H](CO)[C@H](O)[C@H](O)[C@H]4NC(C)=O)nn3)nn2)O[C@H](CO)[C@H](O)[C@@H]1O

Experiments:
CTNNB1 [1] = assay: In vivo evaluation in mice: liver mRNA knockdown measurement (TaqMan qPCR); design: species or system CD-1 mice; settings: Table 6, mice, sequential, peptide IV 15 min after siRNA IV
Experimental: Female CD-1 mice (Charles River) were injected in accordance with either a sequential dosing paradigm or a co-dosing paradigm. In the sequential dosing paradigm, the targeted siRNA (SCE) is dosed at t=0 and the targeted peptide is separately dosed up to 2 hr before the SCE (−2 hr) or up to 24 hr after the SCE (+24 hr). In the co-dosing paradigm, the SCE and peptides are co-formulated and dosed together in the same formulation as a single injection at t=0. The mice were dosed either by intravenous (i.v.) or subcutaneous (s.c.) injection of SCE and peptide. For the i.v. doses, the compounds were injected into the tail vein of the mice. For the s.c. doses, the compounds were injected in the subcutaneous space on the back of the mouse between the shoulder blades. At the indicated harvest times (measured from t=0 when the siRNA was dosed, regardless of when the peptide was dosed), the animals were sacrificed and 3 mm liver punches were collected, preserved in RNAlater (Ambion), and stored at 4° C. Separate 5 mm liver punches were collected, placed in 96-well plates, frozen on dry ice, and stored at −80° C. until use.
The 3 mm liver punches were removed from RNAlater and homogenized in Trizol (Invitrogen) using a bead mill tissue lyser (Qiagen); disruption was performed for two 5-minute cycles at 30 Hz. RNA extraction was performed using 1-bromo-2-chloropropane (Acros Organics) and total RNA was isolated from the aqueous phase using the MagMax RNA isolation method (Ambion). […] TaqMan qPCR analysis was performed with an ABI 7900 Real-Time PCR System using TaqMan Fast Advanced Master Mix (Applied Biosystems). All TaqMan probes and primers for CTNNB1 and PPIB (housekeeping gene) were purchased from Applied Biosystems as pre-validated gene expression assays. Results are calculated by the comparative Ct method, where the difference between the CTNNB1 Ct value and the PPIB Ct value (ΔCt) is calculated and then further normalized relative to the PBS control by taking a second difference (ΔΔCt), as described previously (1).

CTNNB1 [2] = assay: In Vitro DMD Assay: mRNA silencing enhancement by peptide conjugates after siRNA-IV treatment of primary mouse hepatocytes (RT-qPCR); format: cell-based; settings: siRNA-IV 125 nM

For `CC[C@@H](C)[C@@H](NC(=O)[C@@H](CCC(=O)O)NC(=O)[C@@H](C)NC(=O)[C@@H](Cc1ccccc1)NC(=O)[C@@H](CC(C)C)NC(=O)CNC(=O)[C@H](N)CSSCCNC(=O)[C@H](CCCCN(Cc1cn(CCOCCO[C@@H]2O[C@H](CO)[C@H](O)[C@H](O)[C@H]2NC(C)=O)nn1)Cc1cn(CCOCCO[C@@H]2O[C@H](CO)[C@H](O)[C@H](O)[C@H]2NC(C)=O)nn1)N(Cc1cn(CCOCCO[C@@H]2O[C@H](CO)[C@H](O)[C@H](O)[C@H]2NC(C)=O)nn1)Cc1cn(CCOCCO[C@@H]2O[C@H](CO)[C@H](O)[C@H](O)[C@H]2NC(C)=O)nn1)C(=O)N[C@H](CCC(=O)O)C(=O)N[C@H](CCC(=O)O)C(=O)N[C@H](CC(C)C)C(=O)N[C@H](CC(C)C)C(=O)N[C@H](CCC(=O)O)C(=O)N[C@H](CCC(=O)O)C(=O)NCC(=O)N[C@H](CC(C)C)C(=O)N[C@H](CCC(=O)O)C(=O)N[C@H](CC(N)=O)C(=O)N[C@H](CC(C)C)C(=O)N[C@@H](C(=O)N[C@H](CC(=O)O)C(=O)N[C@H](Cc1c[nH]c2ccccc12)C(=O)NCC(=O)N[C@H](CC(N)=O)C(=O)NCC(N)=O)[C@H](C)CC` [TGN-S-S-SEQ ID NO: 1660 (D)] (H-[dC](X1)G[dL][dF][dA][dE][dI][dE][dE][dL][dL][dE][dE]G[dL][dE][dN][dL][dI][dD][dW]G[dN]G-NH2), the “In vivo mRNA knockdown (%)” value (CTNNB1 [1]; TGN-L-siRNA-III 0.25 mg/kg, peptide 10 mg/kg) was 34%.
With `CC[C@H](C)[C@H](NC(=O)[C@H](CCC(=O)O)NC(=O)CNC(=O)[C@H](Cc1ccccc1)NC(=O)[C@H](CC(C)C)NC(=O)CNC(=O)[C@H](CSSCCNC(=O)[C@H](CCCCN(Cc1cn(CCOCCO[C@@H]2O[C@H](CO)[C@H](O)[C@H](O)[C@H]2NC(C)=O)nn1)Cc1cn(CCOCCO[C@@H]2O[C@H](CO)[C@H](O)[C@H](O)[C@H]2NC(C)=O)nn1)N(Cc1cn(CCOCCO[C@@H]2O[C@H](CO)[C@H](O)[C@H](O)[C@H]2NC(C)=O)nn1)Cc1cn(CCOCCO[C@@H]2O[C@H](CO)[C@H](O)[C@H](O)[C@H]2NC(C)=O)nn1)NC(C)=O)C(=O)N[C@@H](CCC(=O)O)C(=O)N[C@@H](CCC(=O)O)C(=O)N[C@@H](CC(C)C)C(=O)N[C@H](C(=O)N[C@@H](CCC(=O)O)C(=O)N[C@@H](CCC(=O)O)C(=O)NCC(=O)N[C@@H](CC(C)C)C(=O)N[C@@H](CCC(=O)O)C(=O)N[C@@H](CC(N)=O)C(=O)N[C@@H](CC(C)C)C(=O)N[C@H](C(=O)N[C@@H](CC(=O)O)C(=O)N[C@@H](Cc1c[nH]c2ccccc12)C(=O)N[C@@H](Cc1c[nH]c2ccccc12)C(=O)N[C@@H](CC(N)=O)C(=O)NCC(N)=O)[C@@H](C)CC)[C@@H](C)CC` [TGN-S-S-SEQ ID NO: 1710 (L)] the “In vivo mRNA knockdown (%)” value (CTNNB1 [1]; TGN-L-siRNA-III 0.5 mg/kg, peptide 5 mg/kg) was 21%.
With `CC[C@@H](C)[C@@H](NC(=O)[C@@H](CCC(=O)O)NC(=O)[C@@H](C)NC(=O)[C@@H](Cc1ccccc1)NC(=O)[C@@H](CC(C)C)NC(=O)CNC(=O)[C@H](N)CSSCCNC(=O)[C@H](CCCCN(Cc1cn(CCOCCO[C@@H]2O[C@H](CO)[C@H](O)[C@H](O)[C@H]2NC(C)=O)nn1)Cc1cn(CCOCCO[C@@H]2O[C@H](CO)[C@H](O)[C@H](O)[C@H]2NC(C)=O)nn1)N(Cc1cn(CCOCCO[C@@H]2O[C@H](CO)[C@H](O)[C@H](O)[C@H]2NC(C)=O)nn1)Cc1cn(CCOCCO[C@@H]2O[C@H](CO)[C@H](O)[C@H](O)[C@H]2NC(C)=O)nn1)C(=O)N[C@H](CCC(=O)O)C(=O)N[C@H](CCC(=O)O)C(=O)N[C@H](CC(C)C)C(=O)N[C@H](CC(C)C)C(=O)N[C@H](CCC(=O)O)C(=O)N[C@H](CCC(=O)O)C(=O)NCC(=O)N[C@H](CC(C)C)C(=O)N[C@H](CCC(=O)O)C(=O)N[C@H](CC(N)=O)C(=O)N[C@H](CC(C)C)C(=O)N[C@@H](C(=O)N[C@H](CC(=O)O)C(=O)N[C@H](Cc1c[nH]c2ccccc12)C(=O)NCC(=O)N[C@H](CC(N)=O)C(=O)NCC(N)=O)[C@H](C)CC` [TGN-S-S-SEQ ID NO: 1660(D)] (H-[dC](X1)G[dL][dF][dA][dE][dI][dE][dE][dL][dL][dE][dE]G[dL][dE][dN][dL][dI][dD][dW]G[dN]G-NH2) the “In vitro dddCt (vs. baseline SCE dose)” value (CTNNB1 [2]; Targeted peptide dose 125 nM) was −0.57, the “In vitro dddCt (vs. baseline SCE dose)” value (CTNNB1 [2]; Targeted peptide dose 625 nM) was −0.9 and the “In vitro dddCt (vs. baseline SCE dose)” value (CTNNB1 [2]; Targeted peptide dose 3125 nM) was −0.69. For the same compound, the “In vitro dddCt (vs. baseline SCE dose)” value (CTNNB1 [2]; Targeted peptide dose 15625 nM) was −0.7.
